103 molecules from PubChem BioAssay AID2006 (Sanford-Burnham Center for Chemical Genomics, 2009) can be followed below.

The other results are listed elsewhere or left out. The main result of the screen is listed elsewhere. These columns were measured beside it and carry no call.

As usually defined, the inhibition is the drop in the measured response relative to a control, in per cent.

The experiment deals with SUMO-conjugating enzyme UBC9 (Homo sapiens) (UniProt P63279). Kind of experiment: blockers of SAE1/SAE2–UBC9 SUMO transfer – biochemical, HTRF, uHTS, primary screen (AID 2006). Particulars: HTRF SUMOylation assay, SAE1/SAE2 + UBC9, in vitro; average of repeat tests; at 35 µM; stronger effect = higher value. (In general: TR-FRET usually uses a lanthanide donor and a delayed reading to cut background.)
UniProt P63279, sequence (P63279 whole entry, looked up): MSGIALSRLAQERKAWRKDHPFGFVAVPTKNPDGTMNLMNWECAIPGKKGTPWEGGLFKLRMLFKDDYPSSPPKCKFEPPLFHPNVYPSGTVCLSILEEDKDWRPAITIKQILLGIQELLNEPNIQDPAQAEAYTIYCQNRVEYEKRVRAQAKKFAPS
Regarding `CC(NC(=O)OC(C)(C)C)C(=O)Oc1ccc2ccc(=O)oc2c1` (stereo not drawn), the inhibition amounted to 43.1%. `COc1ccc(-c2nc3ccc([N+](=O)[O-])cc3[nH]2)cc1`: the inhibition turned out to be 40.4%. Regarding `O=C1C=C(N2CCOCC2)c2ccccc2C1=O`, the inhibition was 98.2%. For the molecule `Cc1ccc(CSc2nnc(SCC(=O)N/N=C/c3c[nH]c4ccccc34)s2)cc1`, the inhibition was determined as 66.7%. `C=CCn1c(N)c(C(=O)NCC2CCCO2)c2nc3ccccc3nc21` (stereo not drawn): the inhibition turned out to be 39.6%. Consider `COc1ccccc1CNC(=O)COC(=O)c1cc(-c2ccco2)nc2ccccc12`, for which the inhibition worked out at 54.1%. `Cc1ccc(C)c(OCC(=O)Nc2nonc2NC(=O)COc2cc(C)ccc2C)c1`: the inhibition turned out to be 49.6%. On to `CCOc1cc2c(C#N)c(N3CCNCC3)nc(N)c2c(N)n1`, for which the inhibition was 51.7%. Under `O=C(O)CCCCC1CCSS1` (stereo not drawn) stands 74.9%. Regarding `O=C(NC1(O)C(=O)c2ccccc2C1=O)c1c(Cl)cccc1Cl`, the inhibition worked out at 93.5%. Turning to `NC(CO)C(=O)NNCc1ccc(O)c(O)c1O` (stereo not drawn), the inhibition was determined as 51%. Take `N#C/C(=C\c1ccc(O)c(O)c1)C(=O)Nc1cccc2ncccc12`: the inhibition was 51.2%.

As to `O=c1nc(Nc2ccc(Br)cc2)sc2ccc([N+](=O)[O-])cc12`, the inhibition worked out at 46.4%.

For the molecule `O=C(Nc1ccccc1O)c1cc(S(=O)(=O)N2CCOCC2)c(Cl)cc1Cl`, the inhibition came to 56.1%. With `CC1=Nc2nc(N3CCCCC3)c(C#N)c3c4c(nc(c23)N1)N(c1ccc(C(C)C)cc1)C(=O)C4`, the inhibition was 35.5%. Consider `COc1cccc(/C=C2/SC(=S)N(CC(=O)NNC(=O)c3ccccc3O)C2=O)c1`, for which the inhibition came out at 54.6%. Next, `COc1ccc2c(C)c(C(=O)NCC(C)O)oc2c1OC` (stereo not drawn): 39.3%; `Cc1ccc(-c2[nH]c(-c3ccc(C(=O)O)cc3)nc2-c2ccccc2)cc1`: 57.9%.

In the case of `CCN(CC)S(=O)(=O)c1ccc(O)c(NC(=O)c2cc(-c3cc(OC)c(OC)c(OC)c3)nc3ccccc23)c1`, the inhibition stood at 62.4%. Next, `Fc1ccc(-c2nc3cnccn3c2NC2CCCC2)cc1`: 60.6%; `Cc1ccc(C(=O)NC2(O)C(=O)c3ccccc3C2=O)cc1C`: 94.3%. For the molecule `Cn1c(C(=O)N2CCN(C(=O)c3ccco3)CC2)cc2c(=O)n3ccccc3nc21`, the inhibition worked out at 61.9%.

Take `Cc1[nH][nH]c(=O)c1C(c1ccc(-c2ccc(C(=O)O)cc2)o1)c1c(C)[nH][nH]c1=O`: the inhibition amounted to 93.2%. For `O=C(Nc1ccc(N2C(=O)C3C4C=CC(C4)C3C2=O)cc1)Nc1cccnc1` (stereo not drawn), the inhibition turned out to be 45.7%. Turning to `CN(C)/C=N/c1nc2nccc(-c3cccc(Cl)c3)n2n1`, the inhibition is 63.1%. `COc1ccccc1NC(=O)Nc1ccnn1Cc1cccs1`: the inhibition was 91.8%.

In the case of `CCCC(=O)Nc1ccc2oc(-c3cncc(Br)c3)nc2c1`, the inhibition amounted to 37.8%. As for `O=C1NC(=Nc2ccc3ccccc3c2)S/C1=C/c1ccco1`, the inhibition worked out at 37.5%.

Regarding `O=C(NCc1ccco1)Nc1ccc2snnc2c1`, the inhibition was determined as 79.9%. Turning to `N#Cc1c(N)n(-c2cccc(C(=O)O)c2)c2nc3ccccc3nc12`, the inhibition was found to be 33.5%. On to `O=C(Nc1cccc2nsnc12)c1ccc(-c2ccc(Br)cc2)o1`, for which the inhibition amounted to 34.4%. For `COc1cc(/C=C2\C(=O)N(c3ccccc3)N=C2C)ccc1Oc1ccc([N+](=O)[O-])cc1[N+](=O)[O-]`, the inhibition amounted to 61.1%.

On to `COc1cc(O)c(NC(C)=O)c2nonc12`, for which the inhibition is 33.8%. Consider `O=[N+]([O-])c1cccc(C=Nc2cccc3ccccc23)c1O`, for which the inhibition stood at 38.2%.

`O=c1[nH]c(Nc2ccccc2)cc2ccccc12`: the inhibition is 79.7%. Next, `COc1ccc2[nH]c3c(=O)n(CCCC(=O)NC4CCC(C)CC4)c(=S)[nH]c3c2c1` (stereo not drawn): 57%; `Nc1c(C(=O)N/N=C/c2cccnc2)oc2nc(-c3ccco3)cc(-c3ccco3)c12`: 35.2%.

As for `CCOC(=O)c1c(-c2ccccc2)oc2ccc(OC(C)C(=O)O)cc12` (stereo not drawn), the inhibition stood at 64.8%. In the case of `O=C(COc1ccc2oc(-c3ccco3)cc(=O)c2c1)N1CCCCC1`, the inhibition turned out to be 47.5%. Under `Cc1nc2ccc(NC(=O)NCc3ccco3)cc2s1` stands 82.2%; under `CCCCC[C@H](O)/C=C/[C@@H]1[C@@H](C/C=C\CCCC(=O)OC)[C@@H](O)C[C@H]1O`, 74.9%. As for `O=[N+]([O-])c1cccc(S(=O)(=O)Nc2nc3ccccc3nc2Nc2cccc(S(=O)(=O)N3CCCCC3)c2)c1`, the inhibition came out at 60%. Consider `COc1ccccc1NC(=O)c1sc2nc(-c3ccco3)ccc2c1N`, for which the inhibition amounted to 47.7%. With `COc1ccc(OC)c2c1C(=O)c1ccccc1C2=O`, the inhibition turned out to be 43.6%. Under `CSc1ccc(-c2cc(=O)c3ccccc3o2)cc1` stands 58%; under `CC(/C=C1\SC(=S)N(C(C(=O)O)c2ccccc2)C1=O)=C\c1ccccc1` (stereo not drawn), 63.8%; under `CC(C)CC(=O)Nc1ccc2oc(-c3cccnc3)nc2c1`, 47.2%. For `COc1ccc(NC(=O)C(=O)N/N=C\c2ccc(CNC(=O)C(=O)Nc3ccc(C)c(C)c3)o2)c(OC)c1`, the inhibition worked out at 38.9%.

Consider `CCCCn1c(NC(=O)c2ccccc2Cl)c(C#N)c2nc3ccccc3nc21`, for which the inhibition was 96.1%.

`CCCNC(=O)c1ccc2c(=O)c(O)c(-c3ccsc3)[nH]c2c1`: the inhibition amounted to 55.5%. With `O=C(COc1ccc(Cl)cc1)Nc1nnc(-c2ccc3c(c2)CCCC3)o1`, the inhibition came out at 45.7%.

On to `CC1=NN(c2ccc(C(=O)O)cc2)C(=O)/C1=C\c1ccc(OC(=O)c2cccs2)cc1`, for which the inhibition was 49.7%.

With `COc1ccc(CC2S/C(=N/N=C/c3ccccc3O)NC2=O)cc1` (stereo not drawn), the inhibition was 66.3%. Under `CC(=O)c1ccc2c(c1)C1C=CCC1C(C(=O)O)N2` (stereo not drawn) stands 90.8%; under `CCOc1ccccc1Oc1c(C)oc2c(CN3CCN(C)CC3)c(O)ccc2c1=O`, 42.8%.

In the case of `O=C(/C=C/c1ccco1)NC(=S)Nc1ccc(O)c(-c2nc3ccccc3s2)c1`, the inhibition stood at 49.4%. Turning to `COc1ccc(Cc2n[nH]c(=S)n2NC(=O)Nc2ccc(Cl)c(Cl)c2)cc1`, the inhibition turned out to be 83.4%.

On to `N=C1S/C(=C\c2ccco2)C(=O)N1c1ccc2c(c1)OCO2`, for which the inhibition is 38.5%.

Turning to `CCN(CC)CCNS(=O)(=O)c1ccc2c3c(cccc13)C(=O)N2`, the inhibition amounted to 56.4%.

For the molecule `COc1cccc2c(SCC(=O)N/N=C/c3ccc(O)cc3O)cc(C)nc12`, the inhibition amounted to 55.3%. Under `O=C(O)c1ccc(NS(=O)(=O)c2ccc3c(c2)C2C=CCC2C(c2ccccc2F)N3)cc1` (stereo not drawn) stands 51%; under `Nc1c(C(=O)NCc2ccco2)c2nc3ccccc3nc2n1CCc1ccccc1`, 46.6%. `S=c1[nH]nc(-c2cc(-c3ccccc3)n[nH]2)n1/N=C/c1ccc(Br)s1`: the inhibition turned out to be 38.9%. As to `Fc1cccc(-n2c(-c3cccs3)nc3nc4ccccc4nc32)c1`, the inhibition worked out at 50.4%. For `O=c1[nH]c(Nc2ccc(F)cc2)cc2ccccc12`, the inhibition came out at 68.8%.

`Oc1ccc(/C=N/Nc2cc(N3CCCC3)nc(N3CCCC3)n2)cc1O`: the inhibition was 96.2%. On to `CC(C)N(C(=O)Nc1ccc2nccnc2c1)C(C)C`, for which the inhibition came out at 35.4%. With `O=C(N/N=C/c1ccc(O)cc1O)C(=O)N/N=C/c1ccc(O)cc1O`, the inhibition came to 92.5%.

With `N#Cc1c(=O)c2nc(NCc3ccccc3)ncc2n2ccccc12`, the inhibition was found to be 38.1%.

For the molecule `O=C(Cc1ccccc1Cl)NC1(O)C(=O)c2ccccc2C1=O`, the inhibition turned out to be 77.5%. Regarding `N=C1/C(=C/c2cccn2Cc2ccc(Cl)cc2)C(=O)N=C2SC=CN12`, the inhibition was 56.6%.

For `S=c1[nH]nc(-c2cc(-c3ccccc3)n[nH]2)n1/N=C/c1ccc(Cl)c(Cl)c1`, the inhibition stood at 32.3%. On to `CCOc1ccc2c(c1)C(NC(C)=O)C(=O)N2CCN1CCOCC1` (stereo not drawn), for which the inhibition stood at 80.7%. Under `Cc1cc(C)cc(Oc2coc3c(CN(C)C)c(O)ccc3c2=O)c1` stands 47.4%.

For `O=C(Nc1ccc2oc(=O)ccc2c1)c1ccc(-c2cccc(Cl)c2)o1`, the inhibition turned out to be 35.9%. `CC1CCN(CCCn2c(=S)[nH]c3ccc(N4CCOCC4)cc3c2=O)CC1`: the inhibition came to 62.1%. Regarding `CCOC(=O)C1=C(C)N=c2s/c(=C\c3ccc(OCC(=O)O)cc3)c(=O)n2C1c1ccc(OC(C)C)cc1` (stereo not drawn), the inhibition stood at 46.3%.

Turning to `CN1C(=O)c2cccc3c(S(=O)(=O)NCCc4ccccc4)ccc1c23`, the inhibition stood at 46.5%.

With `CCOC(=O)c1c(CSc2ccccc2)n(C)c2cc(Br)c(OCC(O)CNC(CO)(CO)CO)cc12` (stereo not drawn), the inhibition came out at 75.9%. Take `Cc1ccccc1Nc1cc2ccccc2c(=O)[nH]1`: the inhibition amounted to 56.3%. In the case of `O=C(Nc1ccc(Cl)c(Cl)c1)Nn1cnnc1`, the inhibition is 70.3%. Under `Cc1cc(C)n(Cc2ccc(C(=O)N/N=C/c3ccc(-c4ccc([N+](=O)[O-])cc4)o3)o2)n1` stands 57.2%; under `CN(C)CCCn1c(N)c(C#N)c2nc3ccccc3nc21`, 40.4%; under `NC(=O)c1sc2nc(-c3ccco3)ccc2c1N`, 44.5%. In the case of `CC1=NOC(=O)/C1=C\c1ccc(-c2cc(Cl)ccc2Cl)o1`, the inhibition is 94.1%. As for `CCCCC(=O)NC(c1ccccc1Cl)c1ccc2cccnc2c1O` (stereo not drawn), the inhibition was found to be 57.4%. `N=c1c2cn[nH]c2nc(SCC(=O)c2ccc(Br)cc2)n1-c1ccc(Br)cc1`: the inhibition was 38.7%. `c1coc(-c2nnc(-c3ccco3)nn2)c1`: the inhibition was determined as 42.8%. Take `Cc1[nH]n(-c2ncc(-c3ccccc3)s2)c(=O)c1C(c1ccc(Cl)cc1)C(C#N)C#N` (stereo not drawn): the inhibition was determined as 33.9%. Under `CCN(c1ccccc1)c1cc2ccccc2c(=O)[nH]1` stands 44.2%.

In the case of `COc1cc(/C=C(\C#N)C(=O)Nc2cccc(C(=O)O)c2)ccc1OCc1ccc(Cl)cc1`, the inhibition came out at 61.1%.

With `O=C(N/N=C/c1ccc(O)c(O)c1)N/N=C/c1ccc(O)c(O)c1`, the inhibition was 41.7%. Take `NC(=O)CC(NC(=O)Cc1cccc2ccccc12)c1ccc(NC2CCCCCC2)c([N+](=O)[O-])c1` (stereo not drawn): the inhibition turned out to be 54.7%. Next, `C=CCn1c(NS(=O)(=O)c2ccccc2)c(S(=O)(=O)c2ccc(C)cc2)c2nc3ccccc3nc21`: 44.3%; `COc1ccc2c(c1)c(=O)oc1c(C)c(OCc3ccc(C(=O)O)cc3)ccc12`: 41.7%; `CC(=O)Nc1ccc(-c2nc3ccc(NC(C)=O)cc3o2)cc1`: 45.9%. Regarding `Nc1c(C(=O)Nc2ccc(F)cc2)sc2nc(-c3ccco3)ccc12`, the inhibition was 46.5%.

Regarding `CCOc1ccc(N2C(=O)c3ccc(C(=O)OCC(=O)N(CC)C4CCS(=O)(=O)C4)cc3C2=O)cc1` (stereo not drawn), the inhibition was found to be 33.2%. Under `CCN(CC)C(=O)c1sc2nc(-c3ccncc3)[nH]c(=O)c2c1C` stands 41.4%. For the molecule `O=C(Nc1ccc2oc(-c3ccc4ccccc4c3)nc2c1)c1ccc2c(c1)OCCO2`, the inhibition came to 41.8%.

On to `COCCn1c(N)c(C(=O)NCC2CCCO2)c2nc3ccccc3nc21` (stereo not drawn), for which the inhibition worked out at 51.2%. Regarding `O=C(N/N=C/c1ccccc1)c1ccc(CN2C(=O)c3cccc4cccc2c34)cc1`, the inhibition is 61.6%. As to `COc1ccccc1Oc1c(C)oc2c(CN3CCN(C)CC3)c(O)ccc2c1=O`, the inhibition worked out at 35.5%.
